# Laboratory results as given in paper PMC4509486 (2015).
# B1: STIM1_([…])-CFP [human] / YFP-SOAR [not stated] (parent complex)
# chain 1: LSHSHSEKATGTSSGANSEESTAAEFCRIDKPLCHSEDEKLSFEAVRNIHKLMDDDANGDVDVEESDEFLREDLNYHDPTVKHSTFHGEDKLISVEDLWKAWKSSEVYNWTVDEVVQWLITYVELPQYEETFRKLQLSGHAMPRLAVTNTTMTGTVLKMTDRSHRQKLQLKALDTVLFGPPLLTRHNHLKDFMLVVSIVIGVGGCWFAYIQNRYSKEHMKKMMKDLEGLHRAEQSLHDLQERLHKAQEEHRTVEVEKVHLEKKLRDEINLAKQEAQRLKELREGTENE
# chain 2: not shown
# Variants of: B1
# Test: FRET (CFP donor / YFP acceptor) in HEK293 cells; resting, before ionomycin; read off a plot
row,Variant,response
1,chain 1 L243G,~0.13 E_app
2,chain 1 L236G,~0.02 E_app
3,chain 1 L239G,~0.045 E_app
